In PMC4531073:
Results are given in words; binding and its absence hold for the method and conditions named. In cells and extracts the contact can be indirect. Some binding calls cover weakened binding; strength is not graded here.

Protein sequences, listed by entry. Tags and fused reporters are not part of them. Lines headed by an entry give the natural chain unless they say otherwise; changes in a name come on top. Residues count along the entry.
UniProt Q9UNE7: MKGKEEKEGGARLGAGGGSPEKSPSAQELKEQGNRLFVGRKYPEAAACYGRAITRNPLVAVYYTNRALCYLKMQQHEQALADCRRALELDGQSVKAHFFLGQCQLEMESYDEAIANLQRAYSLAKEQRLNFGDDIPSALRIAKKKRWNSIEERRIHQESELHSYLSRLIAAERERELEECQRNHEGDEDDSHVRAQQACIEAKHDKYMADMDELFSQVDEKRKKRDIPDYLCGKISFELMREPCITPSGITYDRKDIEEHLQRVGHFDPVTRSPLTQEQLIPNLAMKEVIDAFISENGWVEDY
myc-CHIP^ΔUbox: residues 1-197 of Q9UNE7
myc-CHIP^ΔTPR: residues 142-303 of Q9UNE7
UniProt P56817, residues 46-501: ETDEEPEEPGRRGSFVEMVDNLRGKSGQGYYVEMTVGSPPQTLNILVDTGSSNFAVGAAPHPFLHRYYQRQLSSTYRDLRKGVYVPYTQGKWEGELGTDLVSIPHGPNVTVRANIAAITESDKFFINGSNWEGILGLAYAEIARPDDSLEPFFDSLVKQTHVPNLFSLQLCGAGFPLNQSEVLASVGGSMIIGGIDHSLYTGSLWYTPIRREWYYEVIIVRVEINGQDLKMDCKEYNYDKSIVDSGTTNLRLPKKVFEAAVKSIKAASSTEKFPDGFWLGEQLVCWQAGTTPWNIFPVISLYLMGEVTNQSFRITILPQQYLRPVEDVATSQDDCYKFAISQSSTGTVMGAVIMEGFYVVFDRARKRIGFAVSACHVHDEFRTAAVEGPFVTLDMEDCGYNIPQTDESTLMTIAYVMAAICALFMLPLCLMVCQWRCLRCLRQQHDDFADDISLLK

Key:
Assay in all cases: co-IP; HEK 293 cells co-transfected with Flag-BACE1 and myc-CHIP wild type or mutant (2 μg each); lysis in NP-40 buffer (50 mM Tris-HCl pH 7.4, 150 mM NaCl, 1% NP-40) at 4 °C; IP with anti-myc antibodies and protein A agarose; Western blot with anti-flag antibodies
myc-CHIP wild-type = myc-CHIP wild-type (UniProt Q9UNE7)
myc-CHIP^H260Q = myc-CHIP^H260Q (UniProt Q9UNE7)
myc-CHIP^K30A = myc-CHIP^K30A (UniProt Q9UNE7)
myc-CHIP^ΔTPR = myc-CHIP^ΔTPR (UniProt Q9UNE7)
myc-CHIP^ΔUbox = myc-CHIP^ΔUbox (UniProt Q9UNE7)

binding (myc-CHIP wild-type): binds | binding (myc-CHIP^H260Q): binds | binding (myc-CHIP^K30A): binds | binding (myc-CHIP^ΔTPR): binds | binding (myc-CHIP^ΔUbox): no binding
Substance: 3XFLAG-BACE1 (β-site APP-cleaving enzyme 1) (from UniProt P56817 46-501)
